Results on 42 compounds are retold here after ChEMBL document CHEMBL4888484, “Replenishing the malaria drug discovery pipeline: Screening and hit evaluation of the MMV Hit Generation Library 1 (HGL1) against asexual blood stage Plasmodium falciparum ,using a nano luciferase reporter read-out” (2022).

The test has as its system Plasmodium falciparum. Put plainly: Primary screen in NF54 nanoGlo assay, in single point, at 2uM, 72h; a lower Z score goes with more inhibition. It counts as functional, Erythrocyte. Conditions: timepoint 72 hour.

Among all 150,000 compounds or so, about 540 (0.36%) showed an effect of 50% or more. Some of the results follow.

As to `O=C(CN1CCN(Cc2ccc(F)cc2Cl)C1=O)NC1CCCCCCC1`, the “% Inhibition” value was determined as 5% and the Z score is on record as -0.87.
The like results for `Cc1ccc2nnc(CNS(=O)(=O)c3cccc4c3OCC4)n2c1` were, in that order, 7% and -0.83.
Take `C#CCCC1(CCC(=O)N2CCC[C@H](c3nnco3)C2)N=N1`: the “% Inhibition” value is 8% and the Z score is listed as -0.95.
On to `OC1(C(F)(F)F)CCN(Cc2ccc3c(c2)CCO3)CC1`, for which the “% Inhibition” value is -8% and the Z score worked out at 1.09.
The like results for `O=C(NCc1ccco1)c1cn2c3c(cccc3c1=O)CCC2` were, in that order, -11% and 1.65.
For `CCC[C@H](C)NC(=O)c1cccnc1O`, the “% Inhibition” value is recorded as 1% and the Z score is -0.17.
The like results for `Cc1cccc(OCC(=O)N2CCN(c3ccc(=O)n(-c4cccc(Cl)c4)n3)CC2)c1` were, in that order, 16% and -1.85.
The like results for `C[C@]1(C(=O)Nc2ccc(N3CCOCC3)cc2)CC1(Cl)Cl` were, in that order, -4% and 0.74.
Turning to `c1ccc(C2(c3n[nH]c(C4CCC4)n3)CC2)cc1`, the “% Inhibition” value was -7% and the Z score turned out to be 0.66.
As to `O=C(N[C@H]1CC[C@H](Oc2ccccn2)CC1)c1cnccn1`, the “% Inhibition” value is given as -7% and the Z score was 0.74.
With `COc1ccc(C(=O)N2CCC(C)C3CCCCC32)cc1S(=O)(=O)NC1CCCC1` (centres undefined), the “% Inhibition” value is recorded as -8% and the Z score was found to be 1.26.
The like results for `COc1ccccc1C(=O)Nc1ccc(OCc2nc(-c3ccccc3)oc2C)cc1` were, in that order, -8% and 1.59.
As for `Cc1cccc(-c2cc(C(=O)N3CCCC3)ccn2)c1C`, the “% Inhibition” value is -14% and the Z score is given as 1.83.
As for `C=CCOC[C@@H](O)CN(CCOC)Cc1c(-c2ccccc2)noc1N1CCCCC1`, the “% Inhibition” value is listed as -5% and the Z score is recorded as 0.57.
In the case of `CCc1nnc(CNC(=O)c2ccc(-c3ccc(C(=O)N(C)C)o3)cc2)s1`, the “% Inhibition” value came to 4% and the Z score is reported as -0.62.
For `COCCC(=O)N1C[C@H](c2ccc(C)cc2)[C@@H](N(C)C)C1`, the “% Inhibition” value was -13% and the Z score was found to be 1.25.
With `Cc1ncc(-c2ccc(C)c(S(=O)(=O)NCc3csc(C)n3)c2)o1`, the “% Inhibition” value is 0% and the Z score is -0.03.
The like results for `CS(=O)(=O)N1CCN(C(=O)CCOc2cccc(F)c2)CC1` were, in that order, -10% and 0.89.
The like results for `CC(C(=O)O)C(=O)N1CCCCC1CCCc1ccccc1` (centres undefined) were, in that order, -4% and 0.48.
The like results for `c1ccc(Cc2nnc3n2CCN(Cc2ccnn2C2CCC2)C3)cc1` were, in that order, -7% and 0.92.
With `O=S(=O)(c1cccc(C(F)(F)F)c1)N1CCc2cc(-c3ccncc3)ccc21`, the “% Inhibition” value was -2% and the Z score was 0.3.
The like results for `Cc1ccc(N(C)S(=O)(=O)c2c(-c3cccc(F)c3)csc2C(=O)n2nc(C)cc2C)cc1` were, in that order, -15% and 1.52.
The like results for `CC(=O)N1N=C(COc2ccc(Cl)cc2C)O[C@@]1(C)c1ccc(Cl)c(Cl)c1` were, in that order, 1% and -0.13.
For the compound `Cc1cc(NS(=O)(=O)c2ccc(OC(C)C)nc2)c[nH]c1=O`, the “% Inhibition” value is given as -18% and the Z score was 1.54.
The like results for `O=C(CN1C(=O)COc2ccc(Cl)cc21)Nc1nnc[nH]1` were, in that order, -18% and 2.41.
For `CCn1cc(-c2n[nH]cc2C(=O)N2CCN(CC(C)C)C(=O)C2)cn1`, the “% Inhibition” value amounted to 3% and the Z score was -0.32.
The like results for `O=C(N[C@H]1CCCCNC1=O)c1cccs1` were, in that order, -1% and 0.17.
The like results for `Fc1ccc(COc2cccc(NCc3noc(Cc4ccccc4)n3)c2)cc1` were, in that order, -11% and 2.14.
Turning to `CC(C)(C)OC(=O)N[C@H]1CCCN(CCF)C1`, the “% Inhibition” value is on record as 30% and the Z score is listed as -3.36.
The like results for `Cc1n[nH]cc1CN[C@H]1CCCCc2cc(Br)ccc21` were, in that order, -11% and 1.07.
The like results for `Cn1ncnc1[C@]1(c2ccccc2F)CC1(C)C` were, in that order, 5% and -1.04.
The like results for `CS(=O)(=O)N1CCC[C@@H]1CNc1ncc(Br)cn1` were, in that order, 2% and -0.19.
Regarding `Cc1ccc(NC(=O)C2C(C)Nc3ncnn3C2c2cccnc2)c(C)c1` (centres undefined), the “% Inhibition” value was -2% and the Z score stood at 0.37.
On to `Cc1cccn2c(=O)c(C(=O)NCc3ccc(Cl)cc3)c(O)nc12`, for which the “% Inhibition” value is reported as -6% and the Z score was 0.77.
For the compound `CCOc1ncccc1-c1ccc(OC(C)C)nn1`, the “% Inhibition” value is recorded as -7% and the Z score worked out at 1.24.
For the compound `CC(=O)Nc1c(C)noc1/C=C\c1ccc(C)c(S(=O)(=O)N2CCOCC2)c1`, the “% Inhibition” value is on record as -2% and the Z score amounted to 0.36.
The like results for `CNCC(=O)Nc1ccccc1C(F)(F)F` were, in that order, 32% and -4.34.
`CC1CC(NC(=O)[C@@H]2CCO[C@H]2c2ccc(Cl)c(F)c2)=NO1` (some centres undefined): the “% Inhibition” value is listed as -13% and the Z score was 1.3.
The like results for `CCOCCOc1nc(-c2ccco2)n(-c2cccc(NC(=O)c3ccc(C)c(C(F)(F)F)c3)c2)n1` were, in that order, 0% and 0.05.
With `FC(F)(F)c1cnc(C2CCN(c3cnccn3)CC2)[nH]1`, the “% Inhibition” value came to 1% and the Z score is listed as -0.12.
In the case of `CC(C)N(C)S(=O)(=O)Nc1cc(O)ccc1Cl`, the “% Inhibition” value is -5% and the Z score was determined as 0.84.
The like results for `C[C@]1(C(=O)n2nnc3ccccc32)CC1(Cl)Cl` were, in that order, -13% and 2.55.

A word on the % Inhibition: it is the change of the read-out against control, counted positive when it falls.
